Test results as given in the supplement of paper PMC8728848.
Some of the results follow.

Tests used:
Assay in all cases: glycan array binding signal (z-score within array); higher = stronger binding
Details in all cases: glycan notation: IUPAC condensed, linker removed
[1] = biological target: Neu5Ac(a2-3)Gal(b1-3)[Fuc(a1-4)]GlcNAc
How it was run: (§1)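 The Consortium for Functional Glycomics database supplied 3228 glycan arrays, of which those lacking an available protein sequence were dropped. The binding signal, a within-array Z-score, was averaged across arrays of the same protein sequence and across linkers. Negative scores can be read as non-binding.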

[2] = biological target: Neu5Ac(a2-3)Gal(b1-3)[Fuc(a1-4)]GlcNAc(b1-3)Gal(b1-3)[Fuc(a1-4)]GlcNAc
How it was run: as §1

[3] = biological target: Neu5Ac(a2-3)Gal(b1-3)[Fuc(a1-4)]GlcNAc(b1-3)Gal(b1-4)[Fuc(a1-3)]GlcNAc
How it was run: as §1

[4] = biological target: Neu5Ac(a2-3)Gal(b1-3)[GlcNAc(b1-6)]GalNAc
How it was run: as §1

[5] = biological target: Neu5Ac(a2-3)Gal(b1-3)[Neu5Ac(a2-6)]GalNAc
How it was run: as §1

[6] = biological target: Neu5Ac(a2-3)Gal(b1-3)[Neu5Ac(a2-6)]GlcNAc(b1-3)[Fuc(a1-3)[Gal(b1-4)]GlcNAc(b1-6)]Gal(b1-4)Glc
How it was run: as §1

[7] = biological target: Neu5Ac(a2-3)Gal(b1-3)]Neu5Ac(a2-3)Gal(b1-4)]GlcNAc
How it was run: as §1

Neu5Ac(a2-3)Gal(b1-4)Glc = biological target: Neu5Ac(a2-3)Gal(b1-4)Glc
How it was run: as §1

[8] = biological target: Neu5Ac(a2-3)Gal(b1-4)GlcNAc
How it was run: as §1

[9] = biological target: Neu5Ac(a2-3)Gal(b1-4)GlcNAc(b1-2)Man
How it was run: as §1

[10] = biological target: Neu5Ac(a2-3)Gal(b1-4)GlcNAc(b1-2)Man(a1-3)[GlcNAc(b1-4)][Neu5Ac(a2-3)Gal(b1-4)GlcNAc(b1-2)Man(a1-6)]Man(b1-4)GlcNAc(b1-4)GlcNAc
How it was run: as §1

[11] = biological target: Neu5Ac(a2-3)Gal(b1-4)GlcNAc(b1-2)Man(a1-3)[Neu5Ac(a2-3)Gal(b1-4)GlcNAc(b1-2)Man(a1-6)]Man(b1-4)GlcNAc(b1-4)GlcNAc
How it was run: as §1

[12] = biological target: Neu5Ac(a2-3)Gal(b1-4)GlcNAc(b1-2)Man(a1-3)[Neu5Ac(a2-3)Gal(b1-4)GlcNAc(b1-2)Man(a1-6)]Man(b1-4)GlcNAc(b1-4)[Fuc(a1-6)]GlcNAc
How it was run: as §1

[13] = biological target: Neu5Ac(a2-3)Gal(b1-4)GlcNAc(b1-2)Man(a1-3)[Neu5Ac(a2-6)Gal(b1-4)GlcNAc(b1-2)Man(a1-6)]Man(b1-4)GlcNAc(b1-4)GlcNAc
How it was run: as §1

[14] = biological target: Neu5Ac(a2-3)Gal(b1-4)GlcNAc(b1-2)[Neu5Ac(a2-3)Gal(b1-4)GlcNAc(b1-4)]Man(a1-3)[GlcNAc(b1-4)][Neu5Ac(a2-3)Gal(b1-4)GlcNAc(b1-2)[Neu5Ac(a2-3)Gal(b1-4)GlcNAc(b1-6)]Man(a1-6)]Man(b1-4)GlcNAc(b1-4)GlcNAc
How it was run: as §1

[15] = biological target: Neu5Ac(a2-3)Gal(b1-4)GlcNAc(b1-2)[Neu5Ac(a2-3)Gal(b1-4)GlcNAc(b1-4)]Man(a1-3)[GlcNAc(b1-4)][Neu5Ac(a2-3)Gal(b1-4)GlcNAc(b1-4)Man(a1-6)]Man(b1-4)GlcNAc(b1-4)GlcNAc
How it was run: as §1

[16] = biological target: Neu5Ac(a2-3)Gal(b1-4)GlcNAc(b1-2)[Neu5Ac(a2-3)Gal(b1-4)GlcNAc(b1-6)]Man(a1-6)[Neu5Ac(a2-3)Gal(b1-4)GlcNAc(b1-2)Man(a1-3)]Man(b1-4)GlcNAc(b1-4)GlcNAc
How it was run: as §1

[17] = biological target: Neu5Ac(a2-3)Gal(b1-4)GlcNAc(b1-2)[Neu5Ac(a2-3)Gal(b1-4)GlcNAc(b1-6)]Man(a1-6)[Neu5Ac(a2-3)Gal(b1-4)GlcNAc(b1-2)Man(a1-3)][GlcNAc(b1-4)]Man(b1-4)GlcNAc(b1-4)GlcNAc
How it was run: as §1

[18] = biological target: Neu5Ac(a2-3)Gal(b1-4)GlcNAc(b1-3)Gal
How it was run: as §1

[19] = biological target: Neu5Ac(a2-3)Gal(b1-4)GlcNAc(b1-3)Gal(b1-3)GlcNAc
How it was run: as §1

[20] = biological target: Neu5Ac(a2-3)Gal(b1-4)GlcNAc(b1-3)Gal(b1-4)GlcNAc
How it was run: as §1

[21] = biological target: Neu5Ac(a2-3)Gal(b1-4)GlcNAc(b1-3)Gal(b1-4)GlcNAc(b1-2)Man(a1-3)[Neu5Ac(a2-3)Gal(b1-4)GlcNAc(b1-3)Gal(b1-4)GlcNAc(b1-2)Man(a1-6)]Man(b1-4)GlcNAc(b1-4)GlcNAc
How it was run: as §1

[22] = biological target: Neu5Ac(a2-3)Gal(b1-4)GlcNAc(b1-3)Gal(b1-4)GlcNAc(b1-3)Gal(b1-4)GlcNAc
How it was run: as §1

[23] = biological target: Neu5Ac(a2-3)Gal(b1-4)GlcNAc(b1-3)Gal(b1-4)GlcNAc(b1-3)Gal(b1-4)GlcNAc(b1-2)Man(a1-3)[Neu5Ac(a2-3)Gal(b1-4)GlcNAc(b1-3)Gal(b1-4)GlcNAc(b1-3)Gal(b1-4)GlcNAc(b1-2)Man(a1-6)]GalNAc
How it was run: as §1

[24] = biological target: Neu5Ac(a2-3)Gal(b1-4)GlcNAc(b1-3)Gal(b1-4)GlcNAc(b1-3)GalNAc
How it was run: as §1

[25] = biological target: Neu5Ac(a2-3)Gal(b1-4)GlcNAc(b1-3)Gal(b1-4)GlcNAc(b1-3)[Neu5Ac(a2-3)Gal(b1-4)GlcNAc(b1-3)Gal(b1-4)GlcNAc(b1-6)]GalNAc
How it was run: as §1

[26] = biological target: Neu5Ac(a2-3)Gal(b1-4)GlcNAc(b1-3)Gal(b1-4)GlcNAc(b1-6)[Gal(b1-3)]GalNAc
How it was run: as §1

[27] = biological target: Neu5Ac(a2-3)Gal(b1-4)GlcNAc(b1-3)Gal(b1-4)[Fuc(a1-3)]GlcNAc
How it was run: as §1

[28] = biological target: Neu5Ac(a2-3)Gal(b1-4)GlcNAc(b1-3)GalNAc
How it was run: as §1

[29] = biological target: Neu5Ac(a2-3)Gal(b1-4)GlcNAc(b1-3)[Neu5Ac(a2-3)Gal(b1-4)GlcNAc(b1-6)]GalNAc
How it was run: as §1

B1: CLECb-Precomplexed (Mus musculus), P43025 (protein)
chain: MAKNGLVLCILVVSLLLDQTDGYPSRMKARKHSKRRVKAKDDDLKSQVEKLWREVNALKEMQALQTVCLRGTKVHKKCYLASEGLKHYHEANEDCISKGGTLVVPRNSDEINALRDYGKRSLPGVNDFWLGINDMVTEGKFLDVHGFAVSFLNWDRAQPSGGKRENCVLFSQSAQGKWSDEACRSSKRYICEFIIPTRTRPLEQKLISEEDLAANDILDYKDDDDKV
In the case of B1, the “glycan array binding signal (z-score)” value [1] is reported as -0.368, the “glycan array binding signal (z-score)” value [2] is reported as -0.228 and the “glycan array binding signal (z-score)” value [3] is reported as 0.002. The “glycan array binding signal (z-score)” value [4] was -0.081, the “glycan array binding signal (z-score)” value [5] was 0.297 and the “glycan array binding signal (z-score)” value [6] was -0.391. For the same binder, the “glycan array binding signal (z-score)” value [7] was -0.543, the “glycan array binding signal (z-score)” value (Neu5Ac(a2-3)Gal(b1-4)Glc) was -0.295 and the “glycan array binding signal (z-score)” value [8] was -0.249. For the same binder, the “glycan array binding signal (z-score)” value [9] was -0.548, the “glycan array binding signal (z-score)” value [10] was -0.227 and the “glycan array binding signal (z-score)” value [11] was -0.195. The “glycan array binding signal (z-score)” value [12] was -0.424, the “glycan array binding signal (z-score)” value [13] was -0.245 and the “glycan array binding signal (z-score)” value [14] was 0.227. For the same binder, the “glycan array binding signal (z-score)” value [15] was -0.337, the “glycan array binding signal (z-score)” value [16] was 0.667 and the “glycan array binding signal (z-score)” value [17] was 0.259. For the same binder, the “glycan array binding signal (z-score)” value [18] was 0.468, the “glycan array binding signal (z-score)” value [19] was -0.436 and the “glycan array binding signal (z-score)” value [20] was -0.359. The “glycan array binding signal (z-score)” value [21] was -0.068, the “glycan array binding signal (z-score)” value [22] was 0.135 and the “glycan array binding signal (z-score)” value [23] was 1.63. The “glycan array binding signal (z-score)” value [24] was 0.009, the “glycan array binding signal (z-score)” value [25] was -0.181 and the “glycan array binding signal (z-score)” value [26] was -0.553. The “glycan array binding signal (z-score)” value [27] was -0.288, the “glycan array binding signal (z-score)” value [28] was -0.255 and the “glycan array binding signal (z-score)” value [29] was 0.126.
